Out of some 52,000 compounds screened, about 4,300 (8.3%) were called active. No stated cut-off is given here; in the data, active means survival mostly below about 52% (no sharp cut-off); inactive means mostly above about 56%. This is one part of the list.

This test deals with DeltatarO mutant. Briefly: growth inhibition of S. aureus wild type versus tarO mutant, primary screen, teichoic acid synthesis inhibitors, RN4220, OD600 (AID 463173). Conditions: OD600, 18 h, stronger effect = lower value, screened at 18.75 µg/mL (by protocol).
For the compound `Cc1ccc(CNC(=O)CSc2nc3c(sc4ccccc43)c(=O)n2CCCOC(C)C)cc1`, the survival was inactive: 122%.
Consider `COc1ccc(OC)c(CCNC(=O)c2cc3c(s2)-c2c(C)cccc2OC3)c1`, for which the survival was inactive: 79%.
Next, `Cc1ccc(-n2c(=O)c3sc4ccccc4c3n(CC(=O)NC3CCCC3)c2=O)cc1C`: inactive: 69%; `Cc1ccc(NC(=O)Cn2c(=O)n(Cc3ccccc3)c(=O)c3sc4ccccc4c32)cc1`: inactive: 68%.
Next, `Fc1ccc(C(c2nnc(-c3ccccc3)o2)N2CCN(c3cccc(Cl)c3)CC2)cc1` (stereo not drawn): inactive: 91%; `CCc1ccccc1NC(=O)CSc1nncn2c1cc1oc(C)cc12`: inactive: 62%.
The figure for `COc1ccc(CN2C(=O)C(NC(=O)c3cccc(C)c3)(C(F)(F)F)N=C2c2ccccc2)cc1` (stereo not drawn) is inactive: 74%.
As for `CCOc1ccc(NC(=O)CSc2cn(CCNC(=O)c3ccccc3F)c3ccccc23)cc1`, the survival was inactive: 71%.
For the compound `Cn1c2ccccc2c2cnn(CC(=O)NCCCN3CCCCC3)c(=O)c21`, the survival is inactive: 92%.
The figure for `CCOC(=O)C(CC)n1nnc2sc(-c3ccccc3)cc2c1=O` (stereo not drawn) is inactive: 62%.
On to `CC(=O)N1c2ccccc2Sc2ccccc21`, for which the survival is inactive: 102%.
Next, `CC(=O)c1cccc(NC(=O)CSc2nnc3ccc(-c4ccc(Br)cc4)nn23)c1`: inactive: 75%; `O=C(NCCS(=O)(=O)N1CCN(c2ccc(F)cc2)CC1)C(c1ccccc1)c1ccccc1`: inactive: 113%; `COC(=O)c1ccc(NC(=O)CSc2nc3cc4c(cc3cc2C#N)OCCO4)cc1`: inactive: 87%.
`Cc1ccc(S(=O)(=O)NCC2CCCO2)cc1` (stereo not drawn): the survival was inactive: 69%.
Take `Cc1ccc(-n2ncc(C(=O)N3CCN(c4cc(Cl)ccc4C)CC3)c2C2CCN(C(=O)OC(C)(C)C)CC2)cc1`: the survival is inactive: 100%.
The figure for `COC(=O)c1ccc(Cl)cc1NC(=O)Nc1nnc(N2CCCC2)s1` is inactive: 93%.
Turning to `COc1ccc(CCNC(=O)c2ccc3c(c2)N(Cc2ccccc2)C(=O)c2ccccc2S3=O)cc1OC` (stereo not drawn), the survival was inactive: 70%.
Next, `Cc1ccc(C)c(Cn2c3ccccc3c3cnn(CC(=O)NC(C)CCc4ccccc4)c(=O)c32)c1` (stereo not drawn): inactive: 81%; `CCS(=O)(=O)c1ncc(N(Cc2ccccc2)Cc2ccco2)c(C(=O)Nc2cccc(Cl)c2C)n1`: inactive: 60%; `COc1ccccc1C(=O)Nc1ccc2nc(SCC(=O)N(C)c3ccccc3)sc2c1`: inactive: 74%.
In the case of `CCOc1ccc(NC(=O)C(Cc2ccccc2)NS(=O)(=O)c2ccc3c(c2)oc(=O)n3C)cc1` (stereo not drawn), the survival was inactive: 92%.
Next, `CC(=O)Nc1ccc(Cc2ccncc2)cc1`: inactive: 87%.
Next, `CCN(CC)S(=O)(=O)c1ccc(NC(=O)CN(c2ccccc2)S(=O)(=O)N(C)C)cc1`: inactive: 69%.
Next, `O=C(CN1C(=O)C2(SCC(=O)N2c2cccc(Cl)c2)c2ccccc21)NCCc1ccccc1` (stereo not drawn): inactive: 104%.
Regarding `CCOc1ccc(NC(=O)c2c(Nc3ccccc3C)sc(C(=O)c3ccccc3)c2N)cc1`, the survival was inactive: 94%.
The figure for `CCOc1ccc(CNC(=O)c2ccc3c(c2)c(C)c(C)n3Cc2ccccc2)cc1OC` is inactive: 96%.
The figure for `CC(NC(=O)c1ccc2c(c1)N(Cc1ccc(Cl)cc1)C(=O)CS2)c1ccccc1` (stereo not drawn) is active: 48%; for `CCN(c1cccc(C)c1)S(=O)(=O)c1cc(Br)cc2c1N(C(C)=O)C(C)C2` (stereo not drawn) it is active: 51%; for `COc1ccc2c(c1)c1c(c(=O)n(-c3ccccc3C)c(=O)n1Cc1cccc(C(F)(F)F)c1)n2C` it is inactive: 94%.
Next, `CC(C)OC(=O)c1ccc(Cn2nnc3sc4c(c3c2=O)CCCC4)cc1`: active: 20%; `CCc1ccc(-n2nnc(-c3nc(-c4cccs4)no3)c2N)cc1`: inactive: 66%; `CC1CCN(C(=O)CSc2n[nH]c(-c3ccc(F)cc3)n2)CC1`: inactive: 92%.
On to `CCCN(c1c(C)n(C)n(-c2ccccc2)c1=O)S(=O)(=O)c1ccc(C)cc1`, for which the survival was inactive: 63%.
Next, `COc1ccc(CNc2ncnc3c2nc2n3CCCC2)cc1`: inactive: 120%.
Next, `COc1ccc(CCn2c3c(c(=O)[nH]c2=O)C(NC(=O)c2ccc(Cl)cc2)(C(F)(F)F)C(=O)N3)cc1OC` (stereo not drawn): inactive: 86%.
Next, `C/C(COc1ccccc1OCC(=O)O)=N\NC(=O)c1ccncc1`: inactive: 65%; `O=C(Nn1c(Cc2ccccc2)nc2ccccc2c1=O)c1ccco1`: inactive: 98%.
`Cc1cccc(OCC(=O)Nc2ccccc2C(=O)OCc2cc(=O)n3ccsc3n2)c1`: the survival was inactive: 77%.
The figure for `COc1ccc(NC(=O)c2c(C)oc3ccc(O)c(CN4CCC(C)CC4)c23)cc1Cl` is active: 55%.
Next, `Cc1cccc(CNC(=O)Cn2c(-c3cccs3)cc3ccccc32)c1`: inactive: 116%.
Next, `Cn1ncc2c(Nc3cc(C(F)(F)F)ccc3Cl)ncnc21`: inactive: 91%; `COc1cccc(NC(=O)CN2C(=O)c3cccc4cccc2c34)c1`: inactive: 80%.
Take `O=C(c1ccc(F)cc1)c1cn(Cc2ccccc2F)c2cc3c(cc2c1=O)OCCO3`: the survival was inactive: 83%.
With `Cc1cccc(-c2nc(CN3CCCC(C(=O)N4CCN(c5cc(Cl)ccc5C)CC4)C3)c(C)o2)c1` (stereo not drawn), the survival was inactive: 68%.
Next, `Cc1ccc(C(=O)C(C)OC(=O)C2CC(=O)N(C3CCCCC3)C2)cc1` (stereo not drawn): inactive: 98%; `Oc1ccc(Cl)cc1C1=Nc2ccccc2N=C(c2ccccc2)C1`: inactive: 132%.
Next, `Cc1ccc(CSc2nc3cccnc3n2Cc2ccc(C(=O)NCc3ccco3)cc2)cc1`: inactive: 83%.
For the compound `CCc1nc2ccc(C(=O)N3CCN(c4cc(Cl)ccc4C)CC3)cc2nc1CC`, the survival is inactive: 75%.
In the case of `CC(C)OC(=O)Cn1nnc(-c2ccccc2)n1`, the survival was inactive: 82%.
Next, `Cc1ccc(S(=O)(=O)NCC2CCC(C(=O)NCCc3ccccc3)CC2)cc1` (stereo not drawn): inactive: 81%; `Nc1nonc1/C(=N/OC(=O)c1ccccc1)N1CCOCC1`: inactive: 109%.
In the case of `CC1=CS(=O)(=O)CC1`, the survival is inactive: 74%.
Next, `CCOC(=O)c1cnc2cc(C(F)(F)F)ccc2c1Nc1ccc(F)cc1F`: active: 2%.
The figure for `CC(=O)Nc1ccc(S(=O)(=O)NC2(C(F)(F)F)C(=O)Nc3c2c(=O)[nH]c(=O)n3-c2cccc(Cl)c2)cc1` (stereo not drawn) is inactive: 84%.
Next, `CCC(=O)N1CCc2cc(CNS(=O)(=O)c3cc(OC)ccc3OC)ccc21`: inactive: 135%; `Cc1ccc(C)c(NC(=O)C(=O)NCCCN2CCOCC2)c1`: inactive: 53%.
Regarding `Cc1onc(-c2ccccc2Cl)c1C(=O)Oc1ccc(Cl)cc1Cl`, the survival is inactive: 87%.
The figure for `CCOc1ccccc1NC(=O)COC(=O)CC(C)(C)CC1=NS(=O)(=O)c2ccccc2N1` is inactive: 79%.
With `CCOc1ccc(-n2ccnc2SCC(=O)Nc2cc(C)ccc2C)cc1`, the survival is inactive: 80%.
The figure for `O=C(C1CCC1)N1CCCc2cc(S(=O)(=O)N3CCN(c4cccc(Cl)c4)CC3)ccc21` is inactive: 67%; for `COc1cccc(-n2c(SCc3cccc(C)c3)nc3c([nH]c4ccccc43)c2=O)c1` it is inactive: 75%; for `CCOCc1cc(CN2CCN(c3cccc(C(F)(F)F)c3)CC2)c(O)c2ncccc12` it is inactive: 62%.
The figure for `CC1(C)CC(=O)C2=C(C1)OC(N)=C(C#N)C2c1cn(Cc2cccc(F)c2)c2ccccc12` (stereo not drawn) is inactive: 92%.
Regarding `COc1ccc(N(C(=O)c2ccccc2C)S(=O)(=O)c2ccc(Cl)cc2)cc1`, the survival is inactive: 140%.
Next, `Nc1ncc(S(=O)(=O)NCc2ccccc2)cn1`: inactive: 70%; `CN1C(C(=O)Nc2cccc(O)c2)=CC(c2cccs2)=NS1(=O)=O`: inactive: 87%; `COc1ccc(C(=O)c2cn(Cc3ccccc3)c3ccccc3c2=O)cc1OC`: inactive: 82%.
Next, `O=C(NCCc1nc2ccccc2n1Cc1ccccc1F)c1ccc(F)cc1`: inactive: 81%.
The figure for `CC(C)(C)C(=O)CNS(=O)(=O)c1ccc(S(=O)(=O)NC2CCCCC2)cc1` is inactive: 79%.
`O=C(NCCCN1CCN(c2ccccc2)CC1)c1sc2ncccc2c1-n1cccc1`: the survival is inactive: 91%.
Next, `CCOc1ccc(CCNC(=O)c2cnc3c(-c4ccc(F)cc4)c(C)nn3c2C)cc1`: inactive: 88%.
With `COc1cn(CC(=O)Nc2cc(C)cc(C)c2)c(CN2CCCCC2)cc1=O`, the survival was inactive: 91%.
The figure for `CCC(C)S(=O)(=O)c1oc(-c2cccs2)nc1S(=O)(=O)c1ccccc1` (stereo not drawn) is inactive: 53%; for `CCOc1ccccc1CNCc1c(C(=O)O)c(C)n(Cc2ccc(C)cc2)c1C` it is inactive: 92%; for `CN1CCc2nc3sc(C(=O)c4ccc(F)cc4)c(N)c3cc2C1` it is inactive: 71%.
Next, `COc1cccc(-c2nnc(SCC(=O)N(C)C3CCCCC3)o2)c1`: inactive: 72%; `CN1C(=O)c2cccc3c(S(=O)(=O)Nc4cccc(C(=O)O)c4)ccc1c23`: inactive: 74%; `CCCNC(=O)c1ccc(SC)cc1OC`: inactive: 98%.
Next, `CCOc1ccc(NC(=O)CN(Cc2ccccc2)S(=O)(=O)c2ccc3nc(C)sc3c2)cc1`: inactive: 87%; `CCOc1ccc(CCNC(=O)Cn2c(-c3cccs3)cc3ccccc32)cc1`: inactive: 85%.
Turning to `COc1ccc(CN2C3CCCC2CC(NC(=O)NC2CCCCC2)C3)cc1` (stereo not drawn), the survival was inactive: 85%.
The figure for `O=C(Nc1cc(Cl)cc(Cl)c1)c1cc(S(=O)(=O)NC2CCCC2)ccc1F` is inactive: 94%; for `COc1ccc(CN(C)c2ccc(-c3nc(-c4ccc(OC)c(OC)c4)no3)cc2[N+](=O)[O-])cc1` it is inactive: 62%.
Next, `Cc1cccc(N2CCN(C(=O)C3CCN(C(=O)c4cc5sccc5n4C)CC3)CC2C)c1` (stereo not drawn): inactive: 64%; `Cc1c(Cl)cccc1NC(=O)CCS(=O)(=O)c1ccc2c(c1)CC(C)N2C(=O)C1CC1` (stereo not drawn): inactive: 89%; `CCOC(=O)N1CCc2c(sc3c2c(=O)n(Cc2ccccc2)c(=O)n3CC(=O)Nc2ccc(F)cc2)C1`: inactive: 88%.
The figure for `CNC(=O)CN1C(=O)COc2ccc(S(=O)(=O)N3CCCCCC3)cc21` is inactive: 91%.
